{"source": "paper PMC4336329", "about": "(PLoS ONE, 2015)", "note": "Screen size: about 310,000 compounds; about 2,200 (0.71%) showed an effect of 50% or more. Effects have a minus sign here. The list shows a part of the results.", "data": [{"target": "human ether-à-go-go-related gene (hERG) potassium channel (human, UniProt Q12809)", "sequence (Q12809 whole entry, looked up)": "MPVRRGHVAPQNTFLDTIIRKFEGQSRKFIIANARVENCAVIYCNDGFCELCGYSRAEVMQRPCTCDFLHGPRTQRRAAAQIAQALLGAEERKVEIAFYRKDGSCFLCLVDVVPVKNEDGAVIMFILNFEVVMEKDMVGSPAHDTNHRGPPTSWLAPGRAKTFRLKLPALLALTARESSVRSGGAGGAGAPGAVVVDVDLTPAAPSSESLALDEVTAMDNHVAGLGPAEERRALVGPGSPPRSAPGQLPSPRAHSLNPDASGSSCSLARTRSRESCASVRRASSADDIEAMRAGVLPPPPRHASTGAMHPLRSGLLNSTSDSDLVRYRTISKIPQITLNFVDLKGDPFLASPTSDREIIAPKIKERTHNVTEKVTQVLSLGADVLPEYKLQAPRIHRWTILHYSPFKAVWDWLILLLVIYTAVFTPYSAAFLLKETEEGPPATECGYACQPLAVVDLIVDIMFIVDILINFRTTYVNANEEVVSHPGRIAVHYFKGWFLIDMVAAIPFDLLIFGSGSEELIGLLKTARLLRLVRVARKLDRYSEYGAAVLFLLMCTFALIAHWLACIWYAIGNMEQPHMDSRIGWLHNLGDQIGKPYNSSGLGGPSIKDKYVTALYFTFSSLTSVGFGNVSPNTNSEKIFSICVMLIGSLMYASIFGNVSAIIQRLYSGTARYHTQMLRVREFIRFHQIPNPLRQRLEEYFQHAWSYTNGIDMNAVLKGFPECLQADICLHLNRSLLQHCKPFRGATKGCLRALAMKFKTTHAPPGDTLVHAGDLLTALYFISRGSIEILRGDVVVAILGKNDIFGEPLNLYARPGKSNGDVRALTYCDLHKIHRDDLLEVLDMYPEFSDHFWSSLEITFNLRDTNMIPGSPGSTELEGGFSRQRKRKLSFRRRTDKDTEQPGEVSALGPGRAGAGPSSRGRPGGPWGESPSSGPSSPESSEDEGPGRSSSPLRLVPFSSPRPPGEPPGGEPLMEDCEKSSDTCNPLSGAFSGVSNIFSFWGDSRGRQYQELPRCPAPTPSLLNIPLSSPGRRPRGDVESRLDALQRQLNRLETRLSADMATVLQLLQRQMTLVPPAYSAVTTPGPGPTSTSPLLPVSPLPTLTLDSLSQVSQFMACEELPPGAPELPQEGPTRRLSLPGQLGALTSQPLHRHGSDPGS", "assay": "primary screen, population patch clamp on CHO cells stably expressing hERG", "units": {"hERG current change (%, negative = inhibition) at 1uM": "%"}, "values": [{"molecule": "COC(=O)C1=NN(C(=O)c2ccccc2)C(O)(c2ccc([N+](=O)[O-])cc2)C1", "note": "(stereo not drawn)", "hERG current change (%, negative = inhibition) at 1uM": -0.317}, {"molecule": "Cc1cc(C)nc(SCC(=O)O)n1", "hERG current change (%, negative = inhibition) at 1uM": 8.99}, {"molecule": "O=C(O)/C=C/C(=O)Nc1ccc(-c2ccccc2)cc1", "hERG current change (%, negative = inhibition) at 1uM": 5.84}, {"molecule": "CN1CCC2(O)OCCCC2C1", "note": "(stereo not drawn)", "hERG current change (%, negative = inhibition) at 1uM": 19.1}, {"molecule": "Cc1ccccc1OCCN(C#N)c1nc(N(C)C)nc(N(C)C)n1", "hERG current change (%, negative = inhibition) at 1uM": 7.02}, {"molecule": "CCN(CC)S(=O)(=O)c1cccc(NC(=O)c2cc3ccccc3o2)c1", "hERG current change (%, negative = inhibition) at 1uM": -11.3}, {"molecule": "CCCOc1ccc(CSc2nnc(CCC)n2N)cc1", "hERG current change (%, negative = inhibition) at 1uM": 12.1}, {"molecule": "Cc1cc(C=C2C(=O)c3ccccc3C2=O)c(C)n1C", "hERG current change (%, negative = inhibition) at 1uM": 7.02}, {"molecule": "Cc1ccc2oc(-c3cccc(NC(=O)c4cc(-n5cnnc5)ccc4Cl)c3)nc2c1", "hERG current change (%, negative = inhibition) at 1uM": 3.32}, {"molecule": "Br.NC1=NN=C(c2ccc3c(c2)OCCO3)CS1", "hERG current change (%, negative = inhibition) at 1uM": 11.1}, {"molecule": "COc1ccc(-n2cnc3cc(NS(=O)(=O)c4ccc(C)cc4)ccc32)cc1", "hERG current change (%, negative = inhibition) at 1uM": -6.12}, {"molecule": "Cc1ccc(N/C=C/c2onc(C)c2[N+](=O)[O-])cc1", "hERG current change (%, negative = inhibition) at 1uM": 7.16}, {"molecule": "O=C(Cn1c(=O)c(C(F)(F)F)nc2ccccc21)N1CCC2(CC1)OCCO2", "hERG current change (%, negative = inhibition) at 1uM": -0.212}, {"molecule": "CCc1ccc(C(=O)COC(=O)c2ccc(Cl)nc2)cc1", "hERG current change (%, negative = inhibition) at 1uM": 12}, {"molecule": "CC(Oc1cccc(Cl)c1)C(=O)Nc1ccc(S(=O)(=O)Nc2ncccn2)cc1", "note": "(stereo not drawn)", "hERG current change (%, negative = inhibition) at 1uM": 14.8}, {"molecule": "Cn1cc(C(=O)NCCN2CCN(c3cccc(Cl)c3)CC2)c2c3ccccc3n(C)c2c1=O", "hERG current change (%, negative = inhibition) at 1uM": -7.97}, {"molecule": "CC(C)N1CCN(S(=O)(=O)c2ccc3ccccc3c2)CC1.O=C(O)C(=O)O", "hERG current change (%, negative = inhibition) at 1uM": 20.2}, {"molecule": "Cn1c(C(=O)NCc2cccnc2)cc2sccc21", "hERG current change (%, negative = inhibition) at 1uM": -8.98}, {"molecule": "CCOc1ccc(C(=O)NC(=S)N2CCN(c3ccc(C(F)(F)F)cc3[N+](=O)[O-])CC2)cc1", "hERG current change (%, negative = inhibition) at 1uM": 6.77}, {"molecule": "CCOc1ccc(N2C(=O)S/C(=C\\c3cc(OC)c(OC)c(OC)c3)C2=O)cc1", "hERG current change (%, negative = inhibition) at 1uM": 10.8}, {"molecule": "COCCn1c(=NC(=O)c2ccc(S(=O)(=O)N3CCOCC3)cc2)sc2cc(S(N)(=O)=O)ccc21", "hERG current change (%, negative = inhibition) at 1uM": 5.96}, {"molecule": "CCCCCOc1ccc(C(=O)NCCC(=O)NCCCC(=O)OCC)cc1", "hERG current change (%, negative = inhibition) at 1uM": 11.4}, {"molecule": "O=[N+]([O-])c1cc(C(F)(F)F)cc([N+](=O)[O-])c1NN=C1CCCCC1", "hERG current change (%, negative = inhibition) at 1uM": 9.66}, {"molecule": "Cc1cc(SCC(=O)Nc2c(C)n(C)n(-c3ccccc3)c2=O)nc2ccccc12", "hERG current change (%, negative = inhibition) at 1uM": 8.86}]}]}
